According to the supplement of paper PMC4967469:

Experiments:
Experiment in all cases: Viability of human cancer cell lines after 72 h of drug (GDSC screen)
KU-55933 = compound: O=c1cc(-c2cccc3c2Sc2ccccc2S3)oc(N2CCOCC2)c1 [KU-55933]; conditions: top dose 10 µM
Procedure: (§1)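 Human cancer cell lines in 384-well plates, medium with 10% serum, drug for 72 h over a 256-fold dose range (nine 2-fold or five 4-fold steps up to the top dose). Adherent lines were fixed and stained with the nucleic acid dye Syto60, suspension lines read with resazurin; signal relative to control wells, capped at 0 and 100%. One two-parameter sigmoid per drug and line, fitted in a mixed model over all curves with the slope shared within a line.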

CHIR-99021 = compound: Cc1cnc(-c2cnc(NCCNc3ccc(C#N)cn3)nc2-c2ccc(Cl)cc2Cl)[nH]1 [CHIR-99021]
Procedure: as §1

ABT-869 = compound: Cc1ccc(F)c(NC(=O)Nc2ccc(-c3cccc4[nH]nc(N)c34)cc2)c1 [ABT-869]; conditions: top dose 1.024 µM; top dose inferred
Procedure: as §1

CP466722 = compound: COc1cc2ncnc(-n3nc(-c4ccccn4)nc3N)c2cc1OC [CP466722]; conditions: top dose 16 µM; top dose inferred
Procedure: as §1

GSK269962A = compound: CCn1c(-c2nonc2N)nc2cnc(Oc3cccc(NC(=O)c4ccc(OCCN5CCOCC5)cc4)c3)cc21 [GSK269962A]; conditions: top dose 5 µM; screen: GDSC drug entry 1192; top dose inferred
Procedure: as §1

MPS-1-IN-1 = compound: COc1cc(N2CCC(O)CC2)ccc1Nc1cc(Nc2ccccc2S(=O)(=O)C(C)C)c2cc[nH]c2n1 [MPS-1-IN-1]; conditions: top dose 20 µM; top dose inferred
Procedure: as §1

(5Z)-7-Oxozeaenol = compound: COc1cc(O)c2c(c1)/C=C/C[C@H](O)[C@H](O)C(=O)/C=C\C[C@H](C)OC2=O [(5Z)-7-Oxozeaenol]; conditions: top dose 10 µM; top dose inferred
Procedure: as §1

Zibotentan = compound: COc1nc(C)cnc1NS(=O)(=O)c1cccnc1-c1ccc(-c2nnco2)cc1 [Zibotentan]; conditions: top dose 20 µM; top dose inferred
Procedure: as §1

Thapsigargin = compound: C/C=C(/C)C(=O)O[C@H]1C(C)=C2[C@H]([C@@H]1OC(=O)CCCCCCC)[C@@](C)(OC(C)=O)C[C@H](OC(=O)CCC)[C@@]1(O)[C@H]2OC(=O)[C@@]1(C)O [Thapsigargin]; conditions: top dose 0.512 µM; top dose inferred
Procedure: as §1

Cytarabine = compound: Nc1ccn([C@@H]2O[C@H](CO)[C@@H](O)[C@@H]2O)c(=O)n1 [Cytarabine]; conditions: top dose 2 µM
Procedure: as §1

ABT-888 = compound: C[C@]1(c2nc3c(C(N)=O)cccc3[nH]2)CCCN1 [ABT-888]; conditions: top dose 5 µM; top dose inferred
Procedure: as §1

QL-X-138 = compound: C=CC(=O)Nc1cc(-n2c(=O)ccc3cnc4ccc(-c5cn[nH]c5)cc4c32)ccc1C [QL-X-138]; conditions: top dose 10.24 µM; top dose inferred
Procedure: as §1

[1] = top dose 2.56 µM, screen: GDSC drug entry 154
[2] = top dose 10 µM, screen: GDSC drug entry 1241, top dose inferred

Row | Cell Line | AUC (KU-55933) | IC50 (KU-55933) [nM] | AUC (CHIR-99021; [1]) | IC50 (CHIR-99021; [1]) [nM] | AUC (CHIR-99021; [2]) | IC50 (CHIR-99021; [2]) [nM] | AUC (ABT-869) | IC50 (ABT-869) [nM] | AUC (CP466722) | IC50 (CP466722) [nM] | AUC (GSK269962A) | IC50 (GSK269962A) [nM] | AUC (MPS-1-IN-1) | IC50 (MPS-1-IN-1) [nM] | AUC ((5Z)-7-Oxozeaenol) | IC50 ((5Z)-7-Oxozeaenol) [nM] | AUC (Zibotentan) | IC50 (Zibotentan) [nM] | AUC (Thapsigargin) | IC50 (Thapsigargin) [nM] | AUC (Cytarabine) | IC50 (Cytarabine) [nM] | AUC (ABT-888) | IC50 (ABT-888) [nM] | AUC (QL-X-138) | IC50 (QL-X-138) [nM]
1 | C32 (melanoma, adherent) | 0.982 | > 10000 | 0.955 | > 2560 | 0.976 | > 10000 | 0.765 | 398 | 0.987 | > 16000 | 0.864 | 4880 | 0.987 | > 20000 | 0.161 | 52.4 | 0.983 | > 20000 | 0.73 | 153 | 0.428 | 78.4 | 0.961 | > 5000 | 0.899 | > 10200
2 | C-4-I (cervix, adherent) | 0.954 | > 10000 | 0.952 | > 2560 | 0.981 | > 10000 | 0.98 | > 1020 | 0.98 | > 16000 | 0.856 | 4560 | 0.963 | > 20000 | 0.604 | 1240 | 0.986 | > 20000 | 0.311 | 8.98 | 0.673 | 396 | 0.986 | > 5000 | 0.915 | > 10200
3 | CFPAC-1 (pancreas, adherent) | 0.981 | > 10000 |  |  |  |  | 0.983 | > 1020 | 0.888 | > 16000 |  |  | 0.954 | > 20000 | 0.699 | 2480 | 0.983 | > 20000 | 0.386 | 14.9 | 0.739 | 676 | 0.959 | > 5000 | 0.702 | 2600
4 | H3255 (lung adenocarcinoma, adherent) | 0.963 | > 10000 |  |  |  |  | 0.98 | > 1020 | 0.928 | > 16000 | 0.877 | > 5000 | 0.974 | > 20000 | 0.813 | 6720 | 0.982 | > 20000 | 0.534 | 40.2 | 0.973 | > 2000 | 0.984 | > 5000 | 0.665 | 2020
5 | HT-1197 (bladder, adherent) | 0.971 | > 10000 | 0.981 | > 2560 | 0.943 | > 10000 | 0.983 | > 1020 |  |  | 0.911 | > 5000 | 0.953 | > 20000 | 0.702 | 2590 | 0.985 | > 20000 | 0.781 | 254 | 0.931 | > 2000 | 0.984 | > 5000 | 0.957 | > 10200

Lines with a small IC50 respond at low doses; where the fit passes the top or lowest dose, that dose stands as a limit. The AUC spans the tested range (256-fold, ending at the top dose) of the same fit: 1 means no effect, lower means more sensitive. For some of these results: Where the top dose is marked as inferred, it was derived from the fitted curves, not read from the paper. For some of these results: An entry number marks a drug with two screens in the source, which often give different values.
